Data: the RNAGym collection of RNA variant scans (doi:10.1073/pnas.2313332121)
This sample is rich in variants without activity.

B1: TPR 5TU (parent)
chain: GGAUCUUCUCGAUCUAACAAAAAAGACAAAUCUGCCACAAAGCUUGAGAGCAUCUUCGGAUGCAGAGGCGGCAGCCUUCGGUGGCGCGAUAGCGCCAACGUUCUCAACUAUGACACGCAAAACGCGUGCUCCGUUGAAUGGAGUUUAUCAUG

Variants of: B1
Experiment: polymerase ribozyme fitness, log enrichment relative to wild type (log ratio); higher = more active; in vitro selection for triplet polymerase activity
Method in brief: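 Mutant libraries were PCR-built and transcribed for each subunit of a heterodimeric triplet polymerase ribozyme and selected for one round in triplicate at −7 °C, frozen, before gel excision of extended constructs and streptavidin-bead capture. Input and output libraries were Illumina-sequenced, keeping genotypes with ≥10 input reads and ≥1 read per output. Fitness is a logarithmic ratio of genotype to wild-type enrichment, in base 2, using inverse-variance-weighted replicate averages.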

U56C G84C C87U C103G A106C A119C and U56A A60G G92U U102A C114U C123U cannot be ordered by “polymerase ribozyme fitness (log ratio)” value: at most -4.2 for the first, at most -4.2 for the second.

Going from C57U C95G G126U G141C to U56A C93G, the “polymerase ribozyme fitness (log ratio)” value rises from at most -4.2 to -3.55.

Going from U56A C93A to U56A C93U, the “polymerase ribozyme fitness (log ratio)” value rises from -2.63 to -2.13.

U55G C79U A91C G124C C129A A137U and U56A G88C C129U U134G A137U cannot be ordered by “polymerase ribozyme fitness (log ratio)” value: at most -4.2 for the first, at most -4.2 for the second.

First: C57G G59C C75A C76G C125A G133C U148A
Second: C57G G83C C85U A119G
The “polymerase ribozyme fitness (log ratio)” value of the first is lower: at most -4.2 for the first, -1.44 for the second.

First: C57A G59C U146C U148A C149U
Second: C57A C63U G67U C79U G86U
The “polymerase ribozyme fitness (log ratio)” value of the first is higher: -3.99 for the first, at most -4.2 for the second.

Going from G58A G71C C99U C118G C123G C125U A138U U144A to C57U A142C, the “polymerase ribozyme fitness (log ratio)” value rises from at most -4.2 to -0.377.

First: U56A A73U C93G G141C
Second: C57U C93G
The “polymerase ribozyme fitness (log ratio)” value of the first is lower: at most -4.2 for the first, -3.36 for the second.

Compared with C57U C93A, C57G U61A C114U G136U U139C G143A is lower in “polymerase ribozyme fitness (log ratio)” value: -1.61 for the first, at most -4.2 for the second.

Going from U55G C72U G83U C96U to C57G G70A G86A, the “polymerase ribozyme fitness (log ratio)” value falls from -1.11 to at most -4.2.

Going from G58C C72U C93U A97G A120G U134A A137G to C57G G141A, the “polymerase ribozyme fitness (log ratio)” value rises from at most -4.2 to 0.453.

Going from U56A G74C to C57G C75A C95A, the “polymerase ribozyme fitness (log ratio)” value falls from -4.17 to at most -4.2.

Going from U56A G88U to U56A G88C, the “polymerase ribozyme fitness (log ratio)” value falls from -3.06 to -4.12.

First: U56C G67U A91C A97U C123A
Second: C57U G128U
The “polymerase ribozyme fitness (log ratio)” value of the first is lower: at most -4.2 for the first, -3.2 for the second.

First: C57G U61G C69U
Second: U56A G70C
The “polymerase ribozyme fitness (log ratio)” value of the first is lower: at most -4.2 for the first, -3.24 for the second.

Going from U56C C108U to C57U G83U A137U G141C, the “polymerase ribozyme fitness (log ratio)” value falls from -4.01 to at most -4.2.

Compared with U56A C149U, U55A U104G C131G A150C is lower in “polymerase ribozyme fitness (log ratio)” value: -0.627 for the first, at most -4.2 for the second.

U55A U61A A91U A97C A142G and U56A G80U G84U U102G G124U cannot be ordered by “polymerase ribozyme fitness (log ratio)” value: at most -4.2 for the first, at most -4.2 for the second.

Compared with C57U G58C C87G G143A, U56A C69U A106G is higher in “polymerase ribozyme fitness (log ratio)” value: at most -4.2 for the first, -1.79 for the second.

U55G C79G C85U U130G and C57G C85G A110U C118A A122U C123U cannot be ordered by “polymerase ribozyme fitness (log ratio)” value: at most -4.2 for the first, at most -4.2 for the second.

Compared with U56G G71C C85U C116A, U56A A64U is higher in “polymerase ribozyme fitness (log ratio)” value: at most -4.2 for the first, -4.19 for the second.

C57A U61A G71A C116A and C57U A64C A66G G67U G71A G92C A113G G140U cannot be ordered by “polymerase ribozyme fitness (log ratio)” value: at most -4.2 for the first, at most -4.2 for the second.

C57A G67C C87G C114G and G58A C87A A98G A121C cannot be ordered by “polymerase ribozyme fitness (log ratio)” value: at most -4.2 for the first, at most -4.2 for the second.

Going from G58A G59C G65A C95G C96A A120C to C57A C85A, the “polymerase ribozyme fitness (log ratio)” value rises from at most -4.2 to -1.28.

C57A G80C U109C and U56G G65U C76U C87A A107C U145A cannot be ordered by “polymerase ribozyme fitness (log ratio)” value: at most -4.2 for the first, at most -4.2 for the second.

U55G G83C C116A A138U and U56A C57G G68A A97U U144A cannot be ordered by “polymerase ribozyme fitness (log ratio)” value: at most -4.2 for the first, at most -4.2 for the second.

U55A U78C C79A C85A G112U U139A and U55G G70C A107U U111C A142G cannot be ordered by “polymerase ribozyme fitness (log ratio)” value: at most -4.2 for the first, at most -4.2 for the second.

Compared with U56C C95A U102A, C57U C63U G65U G88A A138U is lower in “polymerase ribozyme fitness (log ratio)” value: -1.87 for the first, at most -4.2 for the second.

U56A C95U U104G A113G C116A and C57A A73U G80C U101G A106U cannot be ordered by “polymerase ribozyme fitness (log ratio)” value: at most -4.2 for the first, at most -4.2 for the second.

U56G A60C A91C G92C G143A and U56A G133A cannot be ordered by “polymerase ribozyme fitness (log ratio)” value: at most -4.2 for the first, at most -4.2 for the second.

C57U G62A C79U C87G G88C G94A C96U G100A and C57G U61A A66U G94C C96G A138C cannot be ordered by “polymerase ribozyme fitness (log ratio)” value: at most -4.2 for the first, at most -4.2 for the second.

U56A G88C C99U U145A and C57A G68A A97G A120U G141U cannot be ordered by “polymerase ribozyme fitness (log ratio)” value: at most -4.2 for the first, at most -4.2 for the second.

Compared with C57A G117U, U55G U78G C87G is lower in “polymerase ribozyme fitness (log ratio)” value: 0.691 for the first, at most -4.2 for the second.

G58C A60G A64G U134A and G58C C75G A97G cannot be ordered by “polymerase ribozyme fitness (log ratio)” value: at most -4.2 for the first, at most -4.2 for the second.

Compared with G58C A115U U127C U144G, C57A C75G C85G C103U U135A is lower in “polymerase ribozyme fitness (log ratio)” value: 0.143 for the first, at most -4.2 for the second.

G58A A110C C118G and U55A U78G G94U C114G cannot be ordered by “polymerase ribozyme fitness (log ratio)” value: at most -4.2 for the first, at most -4.2 for the second.

Compared with C57U C95U C103G, U56A U127A A138C A142G is lower in “polymerase ribozyme fitness (log ratio)” value: -1.87 for the first, -3.48 for the second.

C57G A73U C118G A121U G140U and U56A C57U G71A U102G C131A cannot be ordered by “polymerase ribozyme fitness (log ratio)” value: at most -4.2 for the first, at most -4.2 for the second.

First: G58A C85G C118A G126C
Second: U56G C93G A97G A106G U134A
The “polymerase ribozyme fitness (log ratio)” value of the first is higher: -3.62 for the first, at most -4.2 for the second.

First: U55G G62A C116G
Second: U56G G84U C85A C99U
The “polymerase ribozyme fitness (log ratio)” value of the first is higher: -1.02 for the first, at most -4.2 for the second.

Going from C57A U127A to U55A U61C A66C G74U U78G A115C A121U, the “polymerase ribozyme fitness (log ratio)” value falls from -3.56 to at most -4.2.

In the case of G58A U146G, the “polymerase ribozyme fitness (log ratio)” value is reported as 0.231.
